Data taken from the supplement of paper PMC4604168 (melanoma cell lines).
The list shows a part of the results. Many values rest on one well or one pass, so single values are uncertain.

system: A375; assay: cell count relative to DMSO control; melanoma cells; higher = more viable cells; conditions: library dose: low library concentration; 72 h
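Also: cell number obtained by counting DAPI-stained nuclei in high-throughput microscope images with image analysis software, screen run in 1,536-well plates.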

Row | Structure (SMILES) | cell count [%]
1 | O=S(=O)(c1ccccc1)N(CC(F)(F)F)c1ccc(C(O)(C(F)(F)F)C(F)(F)F)cc1 + O=c1cc(-c2cccc3c2Sc2ccccc2S3)oc(N2CCOCC2)c1 [KU55933] (first compound 1.4 µM, partner dose 1 µM) | 105
2 | O=S(=O)(c1ccccc1)N(CC(F)(F)F)c1ccc(C(O)(C(F)(F)F)C(F)(F)F)cc1 + Oc1nc(-c2ccc(C(F)(F)F)cc2)nc2c1CSCC2 [XAV939] (first compound 1.4 µM, partner dose 2 µM) | 90.6
3 | COc1ccc2c(c1)CCC1C2CCC2(C)C(NCCCCCCN3C(=O)C=CC3=O)CCC12 (stereo unspecified) + Cn1cc(/C=C2\C(=O)Nc3cccnc32)c2ccccc21 [GW441756] (first compound 0.4 µM, partner dose 0.4 µM) | 82.8
4 | COc1ccc(COc2ccc(Cc3cnc(N)nc3N)cc2OC)cc1 + O=S(=O)(c1ccccc1)N(CC(F)(F)F)c1ccc(C(O)(C(F)(F)F)C(F)(F)F)cc1 [T0901317] (first compound 1 µM, partner dose 1.4 µM) | 100
5 | Cc1cc([N+](=O)[O-])ccc1NS(=O)(=O)c1cc(Cl)ccc1Cl + c1cc(-c2cnn3cc(-c4ccc(OCCN5CCCCC5)cc4)cnc23)ccn1 [Dorsomorphin] (first compound 1 µM, partner dose 0.4 µM) | 57
6 | Oc1nc(-c2ccc(C(F)(F)F)cc2)nc2c1CSCC2 + CC(C)CCN1c2nc(Nc3cc(F)c(O)c(F)c3)ncc2N(C)C(=O)C1C [BID1870] (first compound 2 µM, partner dose 0.2 µM) | 94.3
